Results from PMC12820563, “FoxP3 forms a head-to-head dimer in vivo and stabilizes its multimerization on adjacent microsatellites”.
The list shows a part of the results.

Biological target: T1, MBP-FoxP1dN (Mus musculus, UniProt P58462 326-579)
T1 sequence: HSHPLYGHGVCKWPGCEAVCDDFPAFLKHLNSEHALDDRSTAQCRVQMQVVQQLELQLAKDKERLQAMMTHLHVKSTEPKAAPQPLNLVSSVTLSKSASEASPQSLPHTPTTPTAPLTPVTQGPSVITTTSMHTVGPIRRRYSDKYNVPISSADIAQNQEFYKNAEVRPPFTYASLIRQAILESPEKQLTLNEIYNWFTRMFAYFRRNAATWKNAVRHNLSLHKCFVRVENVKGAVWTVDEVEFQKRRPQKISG
Experiment: PD-seq (MBP pull-down with sequencing); 20 mM Tris-HCl pH 7.5, 100 mM NaCl, 1.5 mM MgCl2, 0.4 uM protein, 0.1 uM dsDNA library, 30 min, room temperature, amylose pull-down; high values mean tight binding
Details: protein: recombinant; tags: His6-MBP; chain copies: 2; dsDNA, one strand shown
Method in brief: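 Mouse FoxP3 or FoxP1 fragment lacking the N-terminus, His6-MBP-tagged and expressed in E. coli, was incubated at 0.4 µM with 0.1 µM Klenow-filled degenerate double-stranded DNA library for 30 min at room temperature in Tris pH 7.5 buffer with NaCl and MgCl2. Complexes captured on amylose resin were washed three times and their DNA sequenced on Illumina. Binding is reads-per-million enrichment of pull-down over input, replicates pooled.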

How did the binding signal turn out when “GATGATTGTTCTCCCAGCTGATGAATTTTGGAGGTCGAGTAAACAAATTTTCCTAATCTTTCTGTTCAAGCGCCATCTAC” was run?
The binding signal was 0.772 RPM ratio (pull-down/input).

For “GATGATTGTTCTCCCAGCTGATGAATTGTCTTTATCGAGTAAACAAATTTTCCTAATCTTTCTGTTCAAGCGCCATCTAC”, which binding signal is on record?
The binding signal was 1.18 RPM ratio (pull-down/input).

“GATGATTGTTCTCCCAGCTGATGAATTCCCAAATTCGAGTAAACAAATTTTCCTAATCTTTCTGTTCAAGCGCCATCTAC” was tested. Which binding signal did it give?
The binding signal was 0.936 RPM ratio (pull-down/input).

Which binding signal does the source give for “GATGATTGTTCTCCCAGCTGATGAATTTGTAGAATCGAGTAAACAAATTTTCCTAATCTTTCTGTTCAAGCGCCATCTAC” here?
Its binding signal is 1.08 RPM ratio (pull-down/input).

“GATGATTGTTCTCCCAGCTGATGAATTACTCGGGTCGAGTAAACAAATTTTCCTAATCTTTCTGTTCAAGCGCCATCTAC” was tested. Which binding signal did it give?
The binding signal was 0.857 RPM ratio (pull-down/input).

“GATGATTGTTCTCCCAGCTGATGAATTGGATTTTTCGAGTAAACAAATTTTCCTAATCTTTCTGTTCAAGCGCCATCTAC” was tested. Which binding signal did it give?
Its binding signal is 0.854 RPM ratio (pull-down/input).

How did the binding signal turn out when “GATGATTGTTCTCCCAGCTGATGAATTCGATGACTCGAGTAAACAAATTTTCCTAATCTTTCTGTTCAAGCGCCATCTAC” was run?
Its binding signal is 0.877 RPM ratio (pull-down/input).

“GATGATTGTTCTCCCAGCTGATGAATTATTACACTCGAGTAAACAAATTTTCCTAATCTTTCTGTTCAAGCGCCATCTAC” was tested. Which binding signal did it give?
The binding signal was 1.18 RPM ratio (pull-down/input).

Which binding signal does the source give for “GATGATTGTTCTCCCAGCTGATGAATTGACCGACTCGAGTAAACAAATTTTCCTAATCTTTCTGTTCAAGCGCCATCTAC” here?
The binding signal was 0.924 RPM ratio (pull-down/input).

“GATGATTGTTCTCCCAGCTGATGAATTAGAAACCTCGAGTAAACAAATTTTCCTAATCTTTCTGTTCAAGCGCCATCTAC” was tested. Which binding signal did it give?
Its binding signal is 0.823 RPM ratio (pull-down/input).

With “GATGATTGTTCTCCCAGCTGATGAATTCAGAACGTCGAGTAAACAAATTTTCCTAATCTTTCTGTTCAAGCGCCATCTAC” as the sequence, how does the binding signal read?
The binding signal was 0.84 RPM ratio (pull-down/input).

With “GATGATTGTTCTCCCAGCTGATGAATTAGACGTATCGAGTAAACAAATTTTCCTAATCTTTCTGTTCAAGCGCCATCTAC” as the sequence, how does the binding signal read?
Its binding signal is 1.02 RPM ratio (pull-down/input).

With “GATGATTGTTCTCCCAGCTGATGAATTTGGCTAGTCGAGTAAACAAATTTTCCTAATCTTTCTGTTCAAGCGCCATCTAC” as the sequence, how does the binding signal read?
The binding signal was 0.843 RPM ratio (pull-down/input).

Which binding signal does the source give for “GATGATTGTTCTCCCAGCTGATGAATTTTCCGGGTCGAGTAAACAAATTTTCCTAATCTTTCTGTTCAAGCGCCATCTAC” here?
The binding signal was 0.769 RPM ratio (pull-down/input).

How did the binding signal turn out when “GATGATTGTTCTCCCAGCTGATGAATTTAAGGGGTCGAGTAAACAAATTTTCCTAATCTTTCTGTTCAAGCGCCATCTAC” was run?
Its binding signal is 0.802 RPM ratio (pull-down/input).

How did the binding signal turn out when “GATGATTGTTCTCCCAGCTGATGAATTATTCTCCTCGAGTAAACAAATTTTCCTAATCTTTCTGTTCAAGCGCCATCTAC” was run?
Its binding signal is 0.985 RPM ratio (pull-down/input).

With “GATGATTGTTCTCCCAGCTGATGAATTTACCAACTCGAGTAAACAAATTTTCCTAATCTTTCTGTTCAAGCGCCATCTAC” as the sequence, how does the binding signal read?
Its binding signal is 1.28 RPM ratio (pull-down/input).

How did the binding signal turn out when “GATGATTGTTCTCCCAGCTGATGAATTCCGGAACTCGAGTAAACAAATTTTCCTAATCTTTCTGTTCAAGCGCCATCTAC” was run?
Its binding signal is 0.816 RPM ratio (pull-down/input).

“GATGATTGTTCTCCCAGCTGATGAATTCACATCGTCGAGTAAACAAATTTTCCTAATCTTTCTGTTCAAGCGCCATCTAC” was tested. Which binding signal did it give?
The binding signal was 0.935 RPM ratio (pull-down/input).

With “GATGATTGTTCTCCCAGCTGATGAATTCCGCGTTTCGAGTAAACAAATTTTCCTAATCTTTCTGTTCAAGCGCCATCTAC” as the sequence, how does the binding signal read?
Its binding signal is 0.884 RPM ratio (pull-down/input).

How did the binding signal turn out when “GATGATTGTTCTCCCAGCTGATGAATTATGACGCTCGAGTAAACAAATTTTCCTAATCTTTCTGTTCAAGCGCCATCTAC” was run?
The binding signal was 1.09 RPM ratio (pull-down/input).

With “GATGATTGTTCTCCCAGCTGATGAATTGACCACATCGAGTAAACAAATTTTCCTAATCTTTCTGTTCAAGCGCCATCTAC” as the sequence, how does the binding signal read?
Its binding signal is 1.1 RPM ratio (pull-down/input).

For “GATGATTGTTCTCCCAGCTGATGAATTATGTGCTTCGAGTAAACAAATTTTCCTAATCTTTCTGTTCAAGCGCCATCTAC”, which binding signal is on record?
Its binding signal is 1.09 RPM ratio (pull-down/input).

With “GATGATTGTTCTCCCAGCTGATGAATTTACAGAATCGAGTAAACAAATTTTCCTAATCTTTCTGTTCAAGCGCCATCTAC” as the sequence, how does the binding signal read?
The binding signal was 1.48 RPM ratio (pull-down/input).

How did the binding signal turn out when “GATGATTGTTCTCCCAGCTGATGAATTTTCACTCTCGAGTAAACAAATTTTCCTAATCTTTCTGTTCAAGCGCCATCTAC” was run?
The binding signal was 0.782 RPM ratio (pull-down/input).

How did the binding signal turn out when “GATGATTGTTCTCCCAGCTGATGAATTATCCCGGTCGAGTAAACAAATTTTCCTAATCTTTCTGTTCAAGCGCCATCTAC” was run?
Its binding signal is 0.916 RPM ratio (pull-down/input).

For “GATGATTGTTCTCCCAGCTGATGAATTTCCTTGTTCGAGTAAACAAATTTTCCTAATCTTTCTGTTCAAGCGCCATCTAC”, which binding signal is on record?
The binding signal was 0.868 RPM ratio (pull-down/input).

“GATGATTGTTCTCCCAGCTGATGAATTTGGTACGTCGAGTAAACAAATTTTCCTAATCTTTCTGTTCAAGCGCCATCTAC” was tested. Which binding signal did it give?
Its binding signal is 0.997 RPM ratio (pull-down/input).

How did the binding signal turn out when “GATGATTGTTCTCCCAGCTGATGAATTCTCCACCTCGAGTAAACAAATTTTCCTAATCTTTCTGTTCAAGCGCCATCTAC” was run?
Its binding signal is 0.779 RPM ratio (pull-down/input).

Which binding signal does the source give for “GATGATTGTTCTCCCAGCTGATGAATTGGCCTGATCGAGTAAACAAATTTTCCTAATCTTTCTGTTCAAGCGCCATCTAC” here?
The binding signal was 0.759 RPM ratio (pull-down/input).

How did the binding signal turn out when “GATGATTGTTCTCCCAGCTGATGAATTTCGGCTGTCGAGTAAACAAATTTTCCTAATCTTTCTGTTCAAGCGCCATCTAC” was run?
The binding signal was 0.82 RPM ratio (pull-down/input).

For “GATGATTGTTCTCCCAGCTGATGAATTTTCTGTATCGAGTAAACAAATTTTCCTAATCTTTCTGTTCAAGCGCCATCTAC”, which binding signal is on record?
Its binding signal is 1.08 RPM ratio (pull-down/input).

For “GATGATTGTTCTCCCAGCTGATGAATTCTATAAGTCGAGTAAACAAATTTTCCTAATCTTTCTGTTCAAGCGCCATCTAC”, which binding signal is on record?
Its binding signal is 0.915 RPM ratio (pull-down/input).

How did the binding signal turn out when “GATGATTGTTCTCCCAGCTGATGAATTTCCGTCCTCGAGTAAACAAATTTTCCTAATCTTTCTGTTCAAGCGCCATCTAC” was run?
Its binding signal is 0.797 RPM ratio (pull-down/input).

How did the binding signal turn out when “GATGATTGTTCTCCCAGCTGATGAATTACAGACGTCGAGTAAACAAATTTTCCTAATCTTTCTGTTCAAGCGCCATCTAC” was run?
Its binding signal is 1.01 RPM ratio (pull-down/input).

How did the binding signal turn out when “GATGATTGTTCTCCCAGCTGATGAATTCTAGCGATCGAGTAAACAAATTTTCCTAATCTTTCTGTTCAAGCGCCATCTAC” was run?
Its binding signal is 0.884 RPM ratio (pull-down/input).

Which binding signal does the source give for “GATGATTGTTCTCCCAGCTGATGAATTTCGTACTTCGAGTAAACAAATTTTCCTAATCTTTCTGTTCAAGCGCCATCTAC” here?
The binding signal was 0.893 RPM ratio (pull-down/input).

Which binding signal does the source give for “GATGATTGTTCTCCCAGCTGATGAATTAACTTATTCGAGTAAACAAATTTTCCTAATCTTTCTGTTCAAGCGCCATCTAC” here?
Its binding signal is 0.885 RPM ratio (pull-down/input).

How did the binding signal turn out when “GATGATTGTTCTCCCAGCTGATGAATTAAGAGGCTCGAGTAAACAAATTTTCCTAATCTTTCTGTTCAAGCGCCATCTAC” was run?
The binding signal was 0.988 RPM ratio (pull-down/input).

“GATGATTGTTCTCCCAGCTGATGAATTAATGCACTCGAGTAAACAAATTTTCCTAATCTTTCTGTTCAAGCGCCATCTAC” was tested. Which binding signal did it give?
The binding signal was 1.54 RPM ratio (pull-down/input).
